The values that follow come from article PMC4336329 (PLoS ONE, 2015).

Molecules are shown by their SMILES. About 14,000 (4.5%) of roughly 310,000 compounds showed an effect of 50% or more. The effect is printed as a negative number. Some of the results follow.
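Note: peak tail current of the secondary pulse compared with the same well before compound.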

human ether-à-go-go-related gene (hERG) potassium channel, sequence (Q12809 whole entry, looked up): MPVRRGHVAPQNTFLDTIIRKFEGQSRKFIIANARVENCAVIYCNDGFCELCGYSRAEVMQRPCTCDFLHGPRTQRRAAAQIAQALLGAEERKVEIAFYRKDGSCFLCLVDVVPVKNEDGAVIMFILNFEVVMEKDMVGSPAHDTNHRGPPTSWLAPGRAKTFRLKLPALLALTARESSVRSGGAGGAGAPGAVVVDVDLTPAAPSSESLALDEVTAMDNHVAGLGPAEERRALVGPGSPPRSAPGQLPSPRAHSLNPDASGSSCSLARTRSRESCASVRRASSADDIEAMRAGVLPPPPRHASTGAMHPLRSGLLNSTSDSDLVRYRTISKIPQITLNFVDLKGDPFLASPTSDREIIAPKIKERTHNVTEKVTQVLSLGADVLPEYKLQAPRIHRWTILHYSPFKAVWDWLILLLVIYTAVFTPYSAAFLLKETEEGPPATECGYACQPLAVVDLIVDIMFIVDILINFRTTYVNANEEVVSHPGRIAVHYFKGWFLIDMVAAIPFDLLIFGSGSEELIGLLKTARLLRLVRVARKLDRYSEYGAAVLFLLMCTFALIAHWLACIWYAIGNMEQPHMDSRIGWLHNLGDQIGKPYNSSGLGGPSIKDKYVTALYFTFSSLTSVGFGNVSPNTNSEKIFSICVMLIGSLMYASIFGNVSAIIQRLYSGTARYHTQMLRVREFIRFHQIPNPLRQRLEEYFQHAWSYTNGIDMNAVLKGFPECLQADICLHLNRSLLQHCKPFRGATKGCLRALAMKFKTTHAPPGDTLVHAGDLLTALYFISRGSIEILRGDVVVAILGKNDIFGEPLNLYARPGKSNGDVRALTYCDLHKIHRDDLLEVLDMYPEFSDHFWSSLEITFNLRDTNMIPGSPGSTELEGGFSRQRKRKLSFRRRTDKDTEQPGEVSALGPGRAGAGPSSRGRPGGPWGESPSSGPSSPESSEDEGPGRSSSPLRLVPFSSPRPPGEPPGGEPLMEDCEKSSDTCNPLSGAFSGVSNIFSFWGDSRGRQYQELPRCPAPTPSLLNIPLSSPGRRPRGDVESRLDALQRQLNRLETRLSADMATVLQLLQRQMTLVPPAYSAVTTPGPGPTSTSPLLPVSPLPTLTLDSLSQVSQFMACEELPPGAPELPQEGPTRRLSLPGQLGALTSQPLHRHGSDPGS

This test addresses human ether-à-go-go-related gene (hERG) potassium channel (human, UniProt Q12809). Description: primary screen, population patch clamp on CHO cells stably expressing hERG.
As for `COc1ccccc1NC(=O)c1cccc(NC(=O)c2ccco2)c1`, the “hERG current change (%, negative = inhibition) at 10uM” value is given as -16.1%.

Take `CCN(CC)CCOC(=O)c1ccc([N+](=O)[O-])cc1.Cl`: the “hERG current change (%, negative = inhibition) at 10uM” value is listed as -23.1%.

`CCOC(=O)N1CCN(C(=O)c2ccc3c(=O)n(CCc4ccc(OC)c(OC)c4)c(=O)[nH]c3c2)CC1`: the “hERG current change (%, negative = inhibition) at 10uM” value was 17%.

`O=C(CN(C1CCCCC1)C1CCCCC1)N1CCc2ccccc2C1.O=C(O)C(=O)O`: the “hERG current change (%, negative = inhibition) at 10uM” value is listed as -25.2%.

`CC1CCCN(c2cc3c(cc2[N+](=O)[O-])C(=O)N(c2ccccc2)C3=O)C1` (stereo not shown): the “hERG current change (%, negative = inhibition) at 10uM” value was 15.2%.

`Cc1ccc(S(=O)(=O)Cc2ccc(C(=O)NCc3ccc4c(c3)OCO4)o2)cc1`: the “hERG current change (%, negative = inhibition) at 10uM” value is listed as -23.2%.

As for `COc1cccc(C(=O)N2CCN(C(=O)c3ccc(-c4ccccc4)cc3)CC2)c1OC`, the “hERG current change (%, negative = inhibition) at 10uM” value was -26%.

Consider `COC(=O)c1ccc2[nH]c(C(C)(C)O)c(C)c2c1`, for which the “hERG current change (%, negative = inhibition) at 10uM” value is given as 12.1%.

As for `Cc1c(C(=O)Nc2ccc(Cl)cc2)c2ccccn2c1C(=O)c1ccc([N+](=O)[O-])cc1`, the “hERG current change (%, negative = inhibition) at 10uM” value is -6.62%.

Consider `CC(Oc1ccc2c3c(c(=O)oc2c1)CCC3)C(=O)NCCCn1ccnc1` (stereo not shown), for which the “hERG current change (%, negative = inhibition) at 10uM” value was 14.6%.

Turning to `O=C1[C@H]2[C@@H](/C=C/c3ccccc3)N3C(=O)CN(CCO)C(=O)[C@@]3(Cc3ccccc3)[C@H]2C(=O)N1c1ccccc1`, the “hERG current change (%, negative = inhibition) at 10uM” value amounted to 27.7%.

On to `O=C(c1ccccc1)c1ccc(C(=O)N2CCCC(C(F)(F)F)C2)cc1` (stereo not shown), for which the “hERG current change (%, negative = inhibition) at 10uM” value is -6.03%.

As for `COc1ccccc1S(=O)(=O)N1CCN(S(=O)(=O)c2cccs2)CC1`, the “hERG current change (%, negative = inhibition) at 10uM” value is listed as 5.24%.

For `CC(=O)Nc1ccc(S(=O)(=O)N(C)CC(=O)OCC(=O)NNC(=O)c2ccccc2F)cc1`, the “hERG current change (%, negative = inhibition) at 10uM” value is listed as 11.8%.

Turning to `COc1cc(CNCC(C)C)cc(Br)c1OCC(=O)Nc1ccccc1.Cl`, the “hERG current change (%, negative = inhibition) at 10uM” value was -24.4%.

On to `Cc1nn(C)cc1CNC(=O)Nc1cccc(Cl)c1`, for which the “hERG current change (%, negative = inhibition) at 10uM” value stood at 1.45%.

For `Cc1cccc2nc(COc3ccc(-c4ccccc4)cc3)cn12`, the “hERG current change (%, negative = inhibition) at 10uM” value is listed as -6.63%.

Regarding `C[C@H](NC(=O)c1nc[nH]c1C(=O)NCCCCC[NH3+])C(=O)OCc1ccccc1.[Cl-]`, the “hERG current change (%, negative = inhibition) at 10uM” value was determined as 8.35%.

Consider `COc1ccccc1NC(=O)CC1C(=O)NCCN1C(=O)Nc1ccccc1` (stereo not shown), for which the “hERG current change (%, negative = inhibition) at 10uM” value is reported as -3.9%.

On to `NC(=O)CC(NC(=O)Cc1cccc2ccccc12)c1ccc(NCc2ccccn2)c([N+](=O)[O-])c1` (stereo not shown), for which the “hERG current change (%, negative = inhibition) at 10uM” value is 10.1%.

With `COc1ccc(Cn2c(=O)[nH]c3cc(C(=O)NCCCN4CCCCC4)ccc3c2=O)cc1`, the “hERG current change (%, negative = inhibition) at 10uM” value is -26.5%.

With `COc1ccc(C=O)cc1Cn1ccnc1.Cl`, the “hERG current change (%, negative = inhibition) at 10uM” value was 11.2%.

On to `Cc1ccc2nc(Nc3ccccc3)c(/C=N/O)c(=O)n2c1`, for which the “hERG current change (%, negative = inhibition) at 10uM” value is -2.04%.

In the case of `O=C(O)c1cc2c(cc1Br)OCCCO2`, the “hERG current change (%, negative = inhibition) at 10uM” value was -0.348%.

For the compound `Cc1cc2c(cc1C)C(=O)NC(C)(C)C2`, the “hERG current change (%, negative = inhibition) at 10uM” value was 8.73%.

For `Cc1ccc(S(=O)(=O)N2CCOCC2)cc1C(=O)OC(C)C(=O)NC1CCCC1` (stereo not shown), the “hERG current change (%, negative = inhibition) at 10uM” value was -5.68%.

In the case of `Cc1ccc2nc(N3CCC(C(=O)O)CC3)nc(-c3ccccc3)c2c1`, the “hERG current change (%, negative = inhibition) at 10uM” value is on record as -1.95%.

For `O=C(CCS(=O)(=O)c1ccc(Cl)cc1)N1CCN(S(=O)(=O)c2cccs2)CC1`, the “hERG current change (%, negative = inhibition) at 10uM” value is listed as -28.3%.

Take `CN(C)c1ccc(NC(=O)CSc2nnc(-c3ccco3)c(-c3ccco3)n2)cc1`: the “hERG current change (%, negative = inhibition) at 10uM” value is reported as 6.58%.

On to `CCCCC(=O)Nc1ccccc1CC`, for which the “hERG current change (%, negative = inhibition) at 10uM” value is on record as -5.37%.

For `CCCn1cc2c(c1-c1cccc(C)c1)c(=O)n(C)c(=O)n2C`, the “hERG current change (%, negative = inhibition) at 10uM” value is -4.1%.

Regarding `CCCCNC(C(=O)Nc1ccc(Cl)c([N+](=O)[O-])c1)c1ccccc1.O=C(O)C(=O)O` (stereo not shown), the “hERG current change (%, negative = inhibition) at 10uM” value was -2.78%.

In the case of `CCC(C)NC(=O)c1ccccc1NS(=O)(=O)c1ccc(OC)c(OC)c1` (stereo not shown), the “hERG current change (%, negative = inhibition) at 10uM” value is recorded as 11%.

On to `CCCn1c2ccccc2c2cnn(CC(=O)NCCN(CC)CC)c(=O)c21`, for which the “hERG current change (%, negative = inhibition) at 10uM” value is on record as -66.6%.

With `Cc1ccn2c(=O)nc(SCC(=O)N3CCCc4ccccc43)nc2c1`, the “hERG current change (%, negative = inhibition) at 10uM” value is listed as -5.03%.

`COc1ccc(C(=O)CSc2nnc(-c3ccc(C)cc3)o2)cc1`: the “hERG current change (%, negative = inhibition) at 10uM” value was -0.0747%.

Take `O=C(O)CCn1c(SCCOc2ccccc2)nc2ccccc21`: the “hERG current change (%, negative = inhibition) at 10uM” value is on record as 10.7%.

Regarding `CCCN1C(=O)C2C(C(=O)Nc3cccc(OC)c3)C3C=CC2(O3)C1C(=O)NC1CCCCC1` (stereo not shown), the “hERG current change (%, negative = inhibition) at 10uM” value is on record as 8.31%.

As to `CCSc1nc2c(c(=O)n(C)c(=O)n2C)n1Cc1ccc(Cl)cc1`, the “hERG current change (%, negative = inhibition) at 10uM” value is reported as -17.5%.

Regarding `O=C(Cn1c(=O)c2sccc2n(Cc2cccc([N+](=O)[O-])c2)c1=O)NCCc1ccccc1`, the “hERG current change (%, negative = inhibition) at 10uM” value was -19.4%.

As to `Cc1ccc(S(=O)(=O)NCCC(=O)Nc2cccc(Cl)c2)cc1`, the “hERG current change (%, negative = inhibition) at 10uM” value is recorded as 4.65%.

Regarding `NC(=S)N1OC[C@@H]2COc3ccc4ccccc4c3[C@@H]21`, the “hERG current change (%, negative = inhibition) at 10uM” value turned out to be 4.27%.

On to `COc1ccc(CC(=O)Nc2ccc(C(=O)O)cc2NC(=O)Cc2ccc(OC)cc2)cc1`, for which the “hERG current change (%, negative = inhibition) at 10uM” value amounted to 14%.
